Over roughly 18,000 sequences, “TetR repression strength (sort-seq, GFP reporter)” has its median near 0.23; the highest 2% begin near 0.68. The list shows a part of the results.
target: TetR (class B, Tn10) (UniProt P04483); experiment: TetR repression strength (sort-seq, GFP reporter) (relative to tetO2 = 1); higher = stronger repression; conditions: E. coli
Outline: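 Three independent transformations of E. coli SIG10-MAX were made with a low-copy plasmid library randomizing eight operator positions between a constitutive promoter and sfGFP, with constitutive TetR. Following 5 h at 37 °C in LB plus 50 µg/mL chloramphenicol, 10^6 cells went through FACS into 13 fluorescence bins, and each bin was sequenced by Illumina. Repression strength was defined as the top bin index plus one minus the read-weighted mean bin, divided by the unaltered operator's value. Averages included only members reaching ≥30 reads in all replicates with a CV ≤0.5.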

UniProt P04483, sequence (P04483 whole entry): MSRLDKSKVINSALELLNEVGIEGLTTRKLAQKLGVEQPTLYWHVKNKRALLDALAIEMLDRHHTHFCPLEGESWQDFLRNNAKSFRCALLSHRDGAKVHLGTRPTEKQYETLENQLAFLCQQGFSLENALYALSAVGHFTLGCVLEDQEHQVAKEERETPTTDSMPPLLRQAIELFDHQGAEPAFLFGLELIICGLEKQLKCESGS

| Sequence | TetR repression strength |
| --- | --- |
| TCCCGTTCAGTCCTAGAGA | 0.355 |
| TCCCCAGCAGTGGAGGAGA | 0.217 |
| TCCCCTCTAGTCGCCGAGA | 0.41 |
| TCCCCCTCAGTATCTGAGA | 0.311 |
| TCCCCACGAGTCATAGAGA | 0.337 |
| TCCCAGTTAGTTCAAGAGA | 0.304 |
| TCCCTAAAAGTGCGCGAGA | 0.165 |
| TCCCGAAGAGTTGCCGAGA | 0.126 |
| TCCCCCGTAGTAGTGGAGA | 0.0732 |
| TCCCTGCAAGTTCTGGAGA | 0.0603 |
| TCCCTAGCAGTCAGTGAGA | 0.227 |
| TCCCGCGCAGTGACCGAGA | 0.219 |
| TCCCTGAGAGTGGTGGAGA | 0.336 |
| TCCCTGATAGTGCGGGAGA | 0.237 |
| TCCCCTTGAGTGCATGAGA | 0.184 |
| TCCCTACTAGTAGTAGAGA | 0.389 |
| TCCCATTAAGTTCCTGAGA | 0.228 |
| TCCCCCGAAGTCGTAGAGA | 0.268 |
| TCCCCCAGAGTTAGGGAGA | 0.13 |
| TCCCTCGAAGTTGGGGAGA | 0.266 |
| TCCCCACTAGTAGACGAGA | 0.407 |
| TCCCGCGCAGTACCGGAGA | 0.085 |
| TCCCGAGTAGTCGCAGAGA | 0.599 |
| TCCCGGTTAGTTCCGGAGA | 0.292 |
| TCCCGGGGAGTGAGGGAGA | 0.214 |
| TCCCTTGAAGTGGTCGAGA | 0.399 |

| Sequence | TetR repression strength |
| --- | --- |
| TCCCCTACAGTGCTTGAGA | 0.0462 |
| TCCCTAAAAGTATAGGAGA | 0.142 |
| TCCCTTGGAGTTTCGGAGA | 0.336 |
| TCCCCGGCAGTAACCGAGA | 0.434 |
| TCCCGTTCAGTGCTAGAGA | 0.681 |
| TCCCTTCCAGTGACTGAGA | 0.29 |
| TCCCAGTCAGTCGATGAGA | 0.193 |
| TCCCAGGTAGTCTAGGAGA | 0.193 |
| TCCCAATGAGTCAGGGAGA | 0.24 |
| TCCCGGTCAGTAACTGAGA | 0.396 |
| TCCCGAGTAGTCATGGAGA | 0.092 |
| TCCCTGATAGTTGCTGAGA | 0.202 |
| TCCCGAGGAGTCGTTGAGA | 0.0424 |
| TCCCGTATAGTGGATGAGA | 0.086 |
| TCCCATACAGTTCGGGAGA | 0.0255 |
| TCCCGGGGAGTTCAAGAGA | 0.259 |
| TCCCAGTAAGTGGCGGAGA | 0.267 |
| TCCCGGGCAGTGCGGGAGA | 0.508 |
| TCCCCCATAGTGTTGGAGA | 0.268 |
| TCCCGTAAAGTTACGGAGA | 0.0581 |
| TCCCACCTAGTAGCTGAGA | 0.207 |
| TCCCCGGCAGTGTTCGAGA | 0.207 |
| TCCCCCTCAGTTTGCGAGA | 0.518 |
| TCCCTTTCAGTGATGGAGA | 0.574 |
| TCCCTTAAAGTATTCGAGA | 0.311 |
| TCCCCTGTAGTGAGAGAGA | 0.262 |

| Sequence | TetR repression strength |
| --- | --- |
| TCCCGATGAGTCGAAGAGA | 0.562 |
| TCCCGTCAAGTTCATGAGA | 0.15 |
| TCCCAGACAGTAGGGGAGA | 0.151 |
| TCCCCGGTAGTACGGGAGA | 0.22 |
| TCCCTATGAGTGTAGGAGA | 0.227 |
| TCCCTGTGAGTTTGGGAGA | 0.424 |
| TCCCTTTTAGTAGGAGAGA | 0.196 |
| TCCCAGGCAGTAAATGAGA | 0.121 |
| TCCCTGGTAGTGCTGGAGA | 0.36 |
| TCCCGTGTAGTTGTTGAGA | 0.0138 |
| TCCCCCGGAGTGGTTGAGA | 0.192 |
| TCCCACCCAGTCAATGAGA | 0.783 |
| TCCCCTACAGTTAAGGAGA | 0.207 |
| TCCCAGGAAGTTACGGAGA | 0.242 |
| TCCCGAGCAGTGTGAGAGA | 0.175 |
| TCCCTACTAGTTTCAGAGA | 0.434 |
| TCCCACGAAGTTGGAGAGA | 0.199 |
| TCCCATTCAGTATTCGAGA | 0.407 |
| TCCCGCACAGTGTTGGAGA | 0.152 |
| TCCCGCGAAGTGGGTGAGA | 0.236 |
| TCCCCCCAAGTACATGAGA | 0.0821 |
| TCCCATTGAGTGCTTGAGA | 0.36 |
| TCCCACTGAGTGCTGGAGA | 0.297 |
| TCCCATCCAGTGGCAGAGA | 0.632 |
| TCCCAAGTAGTAGTGGAGA | 0.184 |
| TCCCTACAAGTTTAAGAGA | 0.324 |

| Sequence | TetR repression strength |
| --- | --- |
| TCCCGACTAGTGGGTGAGA | 0.598 |
| TCCCAAACAGTCGTCGAGA | 0.257 |
| TCCCGGCAAGTGGTCGAGA | 0.0682 |
| TCCCCGGTAGTGACCGAGA | 0.096 |
| TCCCGCTGAGTCGGCGAGA | 0.15 |
| TCCCTAAGAGTGTGGGAGA | 0.212 |
| TCCCTATCAGTGATTGAGA | 0.939 |
| TCCCGCGGAGTTTGGGAGA | 0.366 |
| TCCCAATTAGTCGCAGAGA | 0.213 |
| TCCCGGCGAGTTCAGGAGA | 0.164 |
| TCCCAGCCAGTTTATGAGA | 0.224 |
| TCCCACCAAGTGGATGAGA | 0.165 |
| TCCCTGTGAGTTACGGAGA | 0.168 |
| TCCCTCCTAGTCAAAGAGA | 0.153 |
| TCCCGGCGAGTGACAGAGA | 0.339 |
| TCCCCATGAGTCGGGGAGA | 0.0122 |
| TCCCTCGTAGTCTGCGAGA | 0.447 |
| TCCCAAGAAGTGGTAGAGA | 0.18 |
| TCCCTATCAGTTGTGGAGA | 0.726 |
| TCCCGGTTAGTTAAAGAGA | 0.312 |
| TCCCAGCCAGTGCGCGAGA | 0.294 |
| TCCCCGACAGTGCCCGAGA | 0.419 |
| TCCCGCGTAGTGTAAGAGA | 0.404 |
| TCCCCCTAAGTACGTGAGA | 0.429 |
| TCCCCGAAAGTATGAGAGA | 0.209 |
| TCCCGCTTAGTAGTCGAGA | 0.24 |

| Sequence | TetR repression strength |
| --- | --- |
| TCCCACCGAGTAGGGGAGA | 0.16 |
| TCCCATGAAGTAGGGGAGA | 0.095 |
| TCCCAGACAGTCGTTGAGA | 0.187 |
| TCCCAGTCAGTTATTGAGA | 0.368 |
| TCCCATTAAGTTAACGAGA | 0.323 |
| TCCCATGGAGTCAGAGAGA | 0.125 |
| TCCCAGCGAGTTCGGGAGA | 0.3 |
| TCCCTGGGAGTTAGTGAGA | 0.146 |
| TCCCTAGTAGTCGCCGAGA | 0.294 |
| TCCCGTTCAGTGATGGAGA | 0.589 |
| TCCCAATAAGTCGTGGAGA | 0.204 |
| TCCCACGAAGTAAGGGAGA | 0.394 |
| TCCCAATGAGTGCAGGAGA | 0.19 |
| TCCCACAGAGTCCGAGAGA | 0.282 |
| TCCCATATAGTGGCAGAGA | 0.186 |
| TCCCCCATAGTTGGTGAGA | 0.222 |
| TCCCTAGGAGTAGGGGAGA | 0.185 |
| TCCCGCTAAGTTAGAGAGA | 0.0216 |
| TCCCATGGAGTGGGGGAGA | 0.141 |
| TCCCTTCGAGTGCCCGAGA | 0.399 |
| TCCCCAGTAGTGAGTGAGA | 0.217 |
| TCCCTGGTAGTCGAGGAGA | 0.292 |
| TCCCGGTTAGTGAGGGAGA | 0.216 |
| TCCCTATTAGTAGTGGAGA | 0.683 |
| TCCCATGCAGTGGGTGAGA | 0.167 |
| TCCCGTCTAGTCTTTGAGA | 0.366 |

| Sequence | TetR repression strength |
| --- | --- |
| TCCCGAGCAGTGACAGAGA | 0.736 |
| TCCCCGGGAGTCTAGGAGA | 0.285 |
| TCCCAACTAGTTTCAGAGA | 0.351 |
| TCCCTATAAGTTTTAGAGA | 0.286 |
| TCCCTACGAGTTGGCGAGA | 0.466 |
| TCCCAATTAGTGCGGGAGA | 0.22 |
| TCCCGGGAAGTGATTGAGA | 0.261 |
| TCCCAACGAGTGGTCGAGA | 0.429 |
| TCCCAGCAAGTCCAAGAGA | 0.106 |
| TCCCGCTGAGTTAGGGAGA | 0.929 |
| TCCCTAACAGTGAGGGAGA | 0.165 |
| TCCCTGGTAGTCCGTGAGA | 0.13 |
| TCCCCGTTAGTCTAAGAGA | 0.0674 |
| TCCCCGGGAGTTTGGGAGA | 0.369 |
| TCCCCCTAAGTGTGGGAGA | 0.184 |
| TCCCGTGGAGTTAGGGAGA | 0.24 |
| TCCCAGGAAGTCACGGAGA | 0.259 |
| TCCCAGGTAGTGTTAGAGA | 0.388 |
| TCCCCCAAAGTATAAGAGA | 0.364 |
| TCCCGCACAGTCGACGAGA | 0.0481 |
| TCCCGCGGAGTCTGGGAGA | 0.199 |
| TCCCTCTCAGTAGAGGAGA | 0.238 |
| TCCCTACCAGTCAGGGAGA | 0.189 |
| TCCCAGTGAGTTGGGGAGA | 0.31 |
| TCCCAGCGAGTGGTAGAGA | 0.263 |
| TCCCTAAAAGTGTCTGAGA | 0.246 |

| Sequence | TetR repression strength |
| --- | --- |
| TCCCCTAGAGTGAGGGAGA | 0.0829 |
| TCCCGTCGAGTCGTAGAGA | 0.255 |
| TCCCCTGTAGTGTAAGAGA | 0.154 |
| TCCCAGGGAGTCCAAGAGA | 0.186 |
| TCCCGACCAGTCGTAGAGA | 0.348 |
| TCCCTCTAAGTTTGGGAGA | 0.239 |
| TCCCTAACAGTGATAGAGA | 0.816 |
| TCCCAGTAAGTACCCGAGA | 0.356 |
| TCCCGCCCAGTGCTCGAGA | 0.181 |
| TCCCTGCGAGTCTAGGAGA | 0.258 |
| TCCCACTGAGTGGGTGAGA | 0.27 |
| TCCCTGCCAGTTCTGGAGA | 0.256 |
| TCCCGCACAGTATGGGAGA | 0.364 |
| TCCCAACCAGTGGGAGAGA | 0.516 |
| TCCCGCGAAGTGAGGGAGA | 0.234 |
| TCCCATAGAGTCTCTGAGA | 0.426 |
| TCCCCCGTAGTACGGGAGA | 0.213 |
| TCCCGCTGAGTTAGAGAGA | 0.0464 |
| TCCCTGACAGTGGGGGAGA | 0.146 |
| TCCCCGTAAGTAGGGGAGA | 0.194 |
| TCCCGTTTAGTTGGAGAGA | 0.304 |
| TCCCAGATAGTGAAAGAGA | 0.366 |
| TCCCCGGGAGTGTAGGAGA | 0.36 |
| TCCCCGAAAGTGGTAGAGA | 0.095 |
| TCCCGTAGAGTTTGCGAGA | 0 |
| TCCCATTCAGTCAAAGAGA | 0.308 |

| Sequence | TetR repression strength |
| --- | --- |
| TCCCTGTGAGTATCGGAGA | 0.058 |
| TCCCCCCTAGTGACAGAGA | 0.624 |
| TCCCATGGAGTATGCGAGA | 0.286 |
| TCCCTTGAAGTTCGGGAGA | 0.176 |
| TCCCAAATAGTGCGCGAGA | 0.289 |
| TCCCCTGGAGTCCCGGAGA | 0.314 |
| TCCCATGTAGTGCAAGAGA | 0.318 |
| TCCCTCCGAGTTTGTGAGA | 0.507 |
| TCCCCTCGAGTAGTTGAGA | 0.231 |
| TCCCTATGAGTTCGTGAGA | 0.349 |
| TCCCTATGAGTTGAAGAGA | 0.326 |
| TCCCTAAAAGTCCCCGAGA | 0.275 |
| TCCCCGCTAGTCTGAGAGA | 0.201 |
| TCCCGGAAAGTGCGGGAGA | 0.181 |
| TCCCGGACAGTGGAGGAGA | 0.168 |
| TCCCTCACAGTGAAAGAGA | 0.252 |
| TCCCACTCAGTCTAGGAGA | 0.305 |
| TCCCTGACAGTACTAGAGA | 0.533 |
| TCCCGTTGAGTATGGGAGA | 0.308 |
| TCCCGTGTAGTTCCTGAGA | 0.112 |
| TCCCGCGGAGTGGTCGAGA | 0.127 |
| TCCCTCTTAGTCTCCGAGA | 0.341 |

— a collection of fitness landscapes (doi:10.1038/s41467-024-54723-y)
